# Reference: article PMC4336329 (PLoS ONE, 2015)
# In all, about 310,000 compounds went through this assay and about 2,200 (0.71%) showed an effect of 50% or more. Effects have a minus sign here. This is one part of the list.
# Target: human ether-à-go-go-related gene (hERG) potassium channel (human, UniProt Q12809)
# Test: primary screen, population patch clamp on CHO cells stably expressing hERG
# Sequence of human ether-à-go-go-related gene (hERG) potassium channel (Q12809 whole entry, looked up): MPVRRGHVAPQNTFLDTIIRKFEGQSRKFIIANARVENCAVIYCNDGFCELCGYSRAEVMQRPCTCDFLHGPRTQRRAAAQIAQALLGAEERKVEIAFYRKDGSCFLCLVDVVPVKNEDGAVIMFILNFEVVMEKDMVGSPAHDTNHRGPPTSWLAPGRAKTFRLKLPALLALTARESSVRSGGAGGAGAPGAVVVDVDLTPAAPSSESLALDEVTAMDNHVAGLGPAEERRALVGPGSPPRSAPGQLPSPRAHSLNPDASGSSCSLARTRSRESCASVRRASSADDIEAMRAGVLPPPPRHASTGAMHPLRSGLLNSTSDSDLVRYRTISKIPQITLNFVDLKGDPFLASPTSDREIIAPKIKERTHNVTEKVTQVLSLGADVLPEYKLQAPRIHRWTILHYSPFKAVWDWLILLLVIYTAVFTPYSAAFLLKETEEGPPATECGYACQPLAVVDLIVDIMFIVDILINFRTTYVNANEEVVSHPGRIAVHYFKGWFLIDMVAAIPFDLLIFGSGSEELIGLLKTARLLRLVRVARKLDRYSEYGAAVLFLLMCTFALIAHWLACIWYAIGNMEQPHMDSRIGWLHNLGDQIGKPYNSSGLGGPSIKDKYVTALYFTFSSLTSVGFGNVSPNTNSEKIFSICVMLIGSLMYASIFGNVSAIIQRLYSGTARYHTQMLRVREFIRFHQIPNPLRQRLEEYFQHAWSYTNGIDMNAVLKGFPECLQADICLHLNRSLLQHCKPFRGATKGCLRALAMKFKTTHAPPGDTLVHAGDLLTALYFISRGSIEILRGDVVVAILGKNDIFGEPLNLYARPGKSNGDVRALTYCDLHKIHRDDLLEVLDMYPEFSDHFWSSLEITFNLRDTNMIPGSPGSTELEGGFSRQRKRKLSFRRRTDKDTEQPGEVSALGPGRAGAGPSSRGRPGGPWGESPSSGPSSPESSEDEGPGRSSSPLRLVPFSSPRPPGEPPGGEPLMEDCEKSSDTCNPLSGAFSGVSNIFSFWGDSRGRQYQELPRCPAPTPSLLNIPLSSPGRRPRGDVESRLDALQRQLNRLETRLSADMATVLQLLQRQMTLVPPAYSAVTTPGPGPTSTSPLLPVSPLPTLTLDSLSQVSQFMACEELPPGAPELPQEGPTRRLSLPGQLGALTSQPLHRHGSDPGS
row,Compound,"hERG current change (%, negative = inhibition) at 1uM [%]"
1,Cn1c(SCC(=O)Nc2ccccc2F)nnc1-c1cccs1,6.57
2,CCCc1nc2ccc(NC(=O)NCCC(=O)OCC)cc2c(=O)n1Cc1cccc(Cl)c1,-3.49
3,COC(=O)c1ccc(/C=C2/SC(=S)N(CCCC(=O)Nc3ccc(O)cc3)C2=O)cc1,13.5
4,O=S(=O)(Nc1ccc(O)cc1)c1cccc2cccnc12,12.1
5,CCOc1ccc(NC(=S)NN2C(C)CCCC2C)cc1 (centres unmarked),4.48
6,Cc1nc(C(F)(F)F)ccc1C(=O)NCC(O)c1ccccc1 (centres unmarked),3.72
7,COCC(=O)N1CCCC(C(=O)c2ccc(-c3ccccc3)c(F)c2)C1 (centres unmarked),-4.64
8,COc1ccc(Nc2nnc(C)c3ccccc23)cc1,9.56
9,COc1cccc(/C=N/NC(=O)c2c(-c3ccccc3)noc2C)c1,5.95
10,COc1ccc(-c2cn3ccccc3n2)cc1[N+](=O)[O-],6.58
11,CCOC(=O)N1CCN(C(=O)CSc2ccc3nnc(-c4ccncc4)n3n2)CC1,-4.9
12,COC(=O)/C=C1\SC(=Nc2ccc(Cl)c(Cl)c2)NC1=O,17.1
13,COC(=O)c1cc(S(=O)(=O)Nc2nn(C)c3cccc(F)c23)oc1C,16.7
14,Clc1ccc(-c2noc3c2-c2nc(Cc4cccc5ccccc45)sc2CC3)cc1,4.87
15,COc1ccc(NC(=O)CCCNC(=O)Cn2cnc3sc4c(c3c2=O)CCCC4)c(OC)c1,7.59
16,CCOC(=O)N1CCN(c2c(NCCCN(CC)c3cccc(C)c3)c(=O)c2=O)CC1,1.77
17,Cc1ccccc1/[N+]([O-])=C/c1ccncc1,13.6
18,CC(C)c1ccc(NCCC(=O)c2ccc(Br)cc2)cc1,7.33
19,COc1ccc(C(=O)COC(=O)c2cc(C)no2)c(OC)c1,10.4
20,Cc1cc(C(=O)NNC(=O)c2ccc(Cl)cc2)c2ccccc2n1,5.97
21,CC(C)N(C(=O)COC(=O)c1ccccc1C(=O)N1CCN(c2ccc(F)cc2)CC1)C(C)C,-9.42
22,CCC(=O)NCCc1nc2ccccc2n1Cc1ccccc1,12.6
23,CCOc1ccc(S(=O)(=O)N2CCCCC2)cc1NC(=O)C1COc2ccccc2O1 (centres unmarked),14.1

row,Compound,"hERG current change (%, negative = inhibition) at 1uM [%]"
1,CCOc1ccc(NC(=O)Cn2nnc(C(=O)NCc3ccc4c(c3)OCO4)c2N)cc1,10.1
2,Cc1nn(CC(O)c2ccccc2)c(C)c1Br (centres unmarked),8.19
3,Cc1ccc(NC(=O)C2C3C=CC4(O3)C2C(=O)N(CCCN2CCCCC2)C4C(=O)NC2CCCCC2)cc1Cl (centres unmarked),12.9
4,CCCCCCCCS(=O)C1CS(=O)(=O)CC1O (centres unmarked),7.4
5,CCCC(=O)Nc1nc2c(C)c(Cl)ccc2s1,6.64
6,COc1ccc(OC)c(C(Nc2ccccc2)P(=O)(OC(C)C)OC(C)C)c1 (centres unmarked),4.04
7,Cc1nc(Nc2ccccc2Cl)sc1C(=O)Nc1ccccc1,4.06
8,Cc1cccc(C)c1NC(=S)N(CCN(C)C)Cc1cccs1,-8.98
9,CCCCN(CC)CCCNC(=O)Cn1nc(Cc2cccnc2)c2ccccc2c1=O,17.1
10,O=C(Cc1cccs1)NCc1ccc(F)cc1,-1.33
11,Cc1nn(CC(=O)NNC(=S)Nc2ccccc2)c(C)c1[N+](=O)[O-],3.31
12,COc1ccccc1C(=O)C1CCCN(C(=O)c2cccc(Cn3cccn3)c2)C1 (centres unmarked),0.936
13,CSc1nc(C)cc(OCC(=O)n2nc(C)cc2C)n1,6.6
14,O=[N+]([O-])c1ccc(N/N=C/c2ccccc2)c(F)c1,11.3
15,O=C(O)c1ccc(N2C(=O)CSC2c2cccc([N+](=O)[O-])c2)cc1 (centres unmarked),13.3
16,Cc1cc(C)nc(Nc2nc(-c3ccccc3)cs2)n1,14.7
17,O=C1COc2ccc(C(=O)C[n+]3cccc(O)c3)cc2N1.[Cl-],7.37
18,CCn1ncc(C2=NOC(C(=O)Nc3ccc4c(c3)OCO4)C2)c1C (centres unmarked),5.18
19,COc1ccc(-n2nnc3c(=O)n(CC(=O)Nc4cc(C)on4)cnc32)cc1OC,7.43
20,O=C(COc1ccccc1Cl)N1CCN(c2ccc([N+](=O)[O-])c(N3CCCCC3)c2)CC1,0.717
21,Cc1cc(C)c(NC(=S)N(C)C)c(C)c1,9.4
22,C/C(N)=C(/C#N)C(=O)COC(=O)CC1CCCC1,6.01
23,Cc1ccc(S(=O)(=O)NCCCOC(=O)Nc2ccncc2)cc1,2.07

row,Compound,"hERG current change (%, negative = inhibition) at 1uM [%]"
1,COc1ccc(-n2c(-c3cnccn3)n[nH]c2=S)cc1,9.44
2,CC(C)c1cc(=O)[nH]c(N2CCN(Cc3ccc4c(c3)OCO4)CC2)n1,8.53
3,Nc1ncnc2c1ncn2[C@H]1CC[C@@H](CO)O1,14.3
4,O=C(O)CCc1ccc(-c2cccs2)n1NC(=O)c1ccccc1Br,2.9
5,COCCNC(=O)c1cc2sc3ccccc3c2s1,-3.94
6,O=C(C1=C[C@@H](c2csc3ccccc23)C[C@@H](OCc2ccc(CO)cc2)O1)N1CCOCC1,-6.94
7,CC(C)(C)C(=O)C(CO)(Oc1ccc(Cl)cc1)n1cncn1 (centres unmarked),16.1
8,Cc1ncc(CN2CCN(C3CCCC3)C(CCO)C2)s1 (centres unmarked),8.7
9,Cc1cc(O)cc(=O)n1Cc1ccccc1,12.6
10,COc1ccc(-c2cc(C(=O)NCCCN3CCCC3=O)c3ccccc3n2)cc1,10
11,Cc1n[nH]c(=O)n1-c1cccc(C(F)(F)F)c1,10.6
12,COc1ccc(OC)c(S(=O)(=O)Nc2c(C)nn(C)c2C)c1,11.3
13,COc1ccc(S(=O)(=O)NCCC(=O)N2CCCN(C)CC2)cc1,0.682
14,Cn1c(CNC(=O)CNC(=O)c2cccc(F)c2)cc(=O)n(C)c1=O,21.2
15,CCN(CC)CCCN(C(=O)c1cccs1)c1nc(-c2ccc(OC)cc2)cs1,-71.8
16,COc1ccc(-c2csc(N(CC3CCCO3)C(=O)c3ccco3)n2)cc1 (centres unmarked),-8.94
17,CCSc1nnc(NC(=O)C2CCN(S(=O)(=O)c3cc(C(F)(F)F)ccc3Cl)CC2)s1,0.203
18,Cc1cc(-c2ccccc2)oc(=O)c1NC(=O)c1ccccc1,12.2
19,COc1ccc(C2C(C(C)=O)=C(O)C(=O)N2c2nccs2)c(OC)c1 (centres unmarked),8.99
20,Cc1[nH]c(=O)[nH]c(=O)c1S(=O)(=O)N1CCCC(C(=O)N2CCN(c3ccccc3Cl)CC2)C1 (centres unmarked),11.7
21,COc1ccc(CN2C(=O)c3ccccc3C2=O)cc1C(=O)Nc1ccccc1N1CCOCC1,4.03
22,CCC1(c2ccccc2)NC(=O)N(CC(=O)Nc2cc(C(F)(F)F)ccc2N2CCCC2)C1=O (centres unmarked),11.6
23,Cn1c(NC(=O)c2ccc(Cl)cc2)cc(=O)n(C)c1=O,23.2

row,Compound,"hERG current change (%, negative = inhibition) at 1uM [%]"
1,CC(C)(C)c1cc(NC(=O)c2cc(F)c(F)c(F)c2F)no1,11.6
2,COCCNC(=O)Cn1cc(C(=O)c2cccs2)c2ccccc21,13.9
3,CC1=CC(C)(C)N=C(Nc2nc(C)c3cc(C)cc(C)c3n2)N1,-18.8
4,COc1cccc(-c2c(C(=O)N/N=C(\C)c3cccs3)nnn2-c2nonc2N)c1,10.1
5,Cc1onc(-c2ccccc2)c1-c1ccnn1S(=O)(=O)c1ccc(Cl)cc1,11.3
6,CCOC(=O)C1C(=O)CC(C)(O)C(C(=O)OCC)C1c1cccc(OC)c1 (centres unmarked),4.27
7,O=C(NCc1cccs1)Nc1cc(Cl)ccc1Cl,9.81
8,Cc1cc(=O)oc(C)c1C(=O)Nc1ccc(Cl)cn1,16.9
9,COc1cc(C(=O)OCC(=O)c2ccc(S(=O)(=O)N3CCCCC3)cc2)cc(OC)c1OC,10.7
10,CCN(C(=O)COC(=O)c1cc(-c2ccccc2)nc2ccc(Br)cc12)C1CCS(=O)(=O)C1 (centres unmarked),9.12
11,O=C(O)CC(Cc1ccc(Cl)cc1)C(=O)Nc1ccccc1 (centres unmarked),11.5
12,O=C(NCCCCc1ccccc1)c1cccc(Br)c1,10.1
13,COc1ccccc1C(c1nnnn1C(C)(C)C)N1CCCCCC1 (centres unmarked),2.35
14,O=C(CSc1nc(O)c(Cc2ccccc2)c(=O)[nH]1)Nc1nnc(SCc2ccccc2)s1,16.2
15,OCCSc1nncn1/N=C/c1c[nH]c2ccccc12,4.35
16,O=C(O)C1Sc2[nH]c(=O)sc2C2c3ccc(O)cc3OC(=O)C12 (centres unmarked),18.4
17,C[C@]12CCC(=O)CC1=CCC1C3CC=C(C#N)[C@@]3(C)CC[C@@]12O (some centres unmarked),15.3
18,Cc1cc(NC(=O)NC(C(F)(F)F)C(F)(F)F)no1,16.7
19,O=C(Nc1cccc(Cl)c1)C1COc2ccccc2O1 (centres unmarked),14
20,COc1ccc(O)c(C2NC(CC(C)C)(C(=O)O)C3C(=O)N(Cc4ccccc4)C(=O)C23)c1 (centres unmarked),3.62
